# Measurements taken from PubChem BioAssay AID463173 (ICCB-Longwood Screening Facility, Harvard Medical School, 2010).
# The campaign covered roughly 52,000 compounds. About 1,700 (3.3%) were called active. No stated cut-off is given here; in the data, active means survival mostly below about 52% (no sharp cut-off); inactive means mostly above about 56%. This is one part of the list.
# System: Wild type
# Experiment: growth inhibition of S. aureus wild type versus tarO mutant, primary screen, teichoic acid synthesis inhibitors, RN4220, OD600 (AID 463173)
# Conditions: S. aureus RN4220 wild type/DeltatarO growth, OD600, 18 h, hits give low values, screened at 18.75 µg/mL (by protocol)
row,SMILES,survival
1,O=C(COC(=O)c1ccco1)Nc1cccc2ccccc12,inactive: 113%
2,COc1cccc(N2CCN(C(=O)c3cc4cc5cc(C)ccc5nc4s3)CC2)c1,inactive: 79%
3,CCn1c(CN2CCC(C)CC2)nc2cc(NC(=O)COc3ccc(Cl)c(C)c3)ccc21,inactive: 61%
4,CC(C)C1Oc2ccccc2N(CC(=O)N(C)C2CCCCC2)C1=O (stereo unspecified),inactive: 112%
5,COc1cc(OC)c(NC(=O)CCc2c(C)nc3ncnn3c2C)cc1Cl,inactive: 71%
6,CCC(=O)N1c2ccccc2CC1C(=O)NCc1ccccc1Cl (stereo unspecified),inactive: 68%
7,Cc1cccc(NC(=O)CCn2cnnn2)c1C,inactive: 71%
8,Cc1ccc(Cn2cccc(NC(=O)c3ccncc3)c2=O)cc1,inactive: 104%
9,Cc1cccc(NC(=O)Cn2cc(C(=O)c3ccco3)c3ccccc32)c1,inactive: 97%
10,Cc1ccc(CNC(=O)c2ccc(Cn3c(=O)c4ccccc4n(CC(=O)Nc4ccc(C)cc4)c3=O)cc2)cc1,inactive: 69%
11,O=C(NCCc1ccccc1)c1ccc(Cl)nc1,inactive: 97%
12,COc1ccc(Cn2cc(S(=O)(=O)c3ccc(Cl)cc3)c(=O)c3cc4c(cc32)OCO4)cc1,inactive: 76%
13,O=C1CN(Cc2ccccc2)C(=NCc2ccco2)S1,inactive: 104%
14,CC1CCN(CC(=O)N2CCN(c3ccccc3)CC2)CC1,inactive: 106%
15,Cc1ccccc1OCCn1c(-c2ccc(Cl)cc2)nc2ccccc2c1=O,inactive: 63%
16,O=C(OCc1cc(=O)n2nc(C3CCCCC3)sc2n1)c1ccc(F)cc1,inactive: 55%
17,CCOc1ccc(NC(=O)CC2C(=O)N(c3ccc(Cl)cc3)C(=O)N2Cc2cccs2)cc1 (stereo unspecified),inactive: 71%
18,O=C(Nc1ccc2oc(-c3ccncc3)nc2c1)c1ccccc1Cl,inactive: 73%
19,Cc1oc(-c2ccc(Cl)cc2)nc1CSc1nc2ncccc2[nH]1,inactive: 110%
20,COc1ccc(-c2noc(-c3cccnc3N3CCN(c4ccc(OC)cc4)CC3)n2)cc1,inactive: 89%
21,O=C(Nc1cccc(Cl)c1)c1ccc2c(c1)CCN2S(=O)(=O)c1ccccc1,inactive: 76%
22,CCCCN(CC)C(=O)CSc1c2c(nc3ccc(Cl)cc13)CCCC2,active: -2%
23,CCOc1ccc(NC(=O)c2sc3nc4c(c(-c5ccc(OC)cc5)c3c2N)C(=O)CC(C)(C)C4)cc1,inactive: 69%
24,CCOc1ccc(-n2cc(-c3ccccc3)c3c(N4CCN(c5ccccc5OC)CC4)ncnc32)cc1,inactive: 70%
25,COC(=O)c1c(NC(=O)/C(C#N)=C/c2ccccc2)sc2c1CCC2,inactive: 74%
26,COc1ccccc1Nc1cc(C(=O)NC2CCC(C)CC2)c2ccccc2n1 (stereo unspecified),inactive: 84%
